Results reported in PMC9911399, “Two distinct binding modes provide the RNA-binding protein RbFox with extraordinary sequence specificity”.
Numbering of substitutions follows the chain as printed; changes in the protein carry UniProt numbers. The list shows a part of the results.

T1: RBFOX1 RRM RbFoxmut (Fox-RRM*) (Homo sapiens, UniProt Q9NWB1 109-208, R118D;E147R;N151S;E152T)
T1 sequence: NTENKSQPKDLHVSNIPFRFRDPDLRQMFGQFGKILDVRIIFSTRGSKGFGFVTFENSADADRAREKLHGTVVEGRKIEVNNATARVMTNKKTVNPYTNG

B1: GCCAGUG (DNA:RNA)
RNA: GGGAGACCGGAAUUCAGAUUGUCCGCCAGUGUUAAAUCCCGUCGUAGCCACCA
DNA 1: CAATCTGAATTCCGGTCTCCC
DNA 2: TGGTGGCTACGACGGGATT
B2: UUUGGGA (DNA:RNA)
RNA: B1 RNA with G25U, C26U, C27U, A28G, U30G, G31A
DNA 1: CAATCTGAATTCCGGTCTCCC
DNA 2: TGGTGGCTACGACGGGATT
B3: UAUGACC (DNA:RNA)
RNA: GGGAGACCGGAAUUCAGAUUGUCCUAUGACCUUAAAUCCCGUCGUAGCCACCA
DNA 1: CAATCTGAATTCCGGTCTCCC
DNA 2: TGGTGGCTACGACGGGATT
B4: GACUGCG (DNA:RNA)
RNA: B1 RNA with C26A, A28U, U30C
DNA 1: CAATCTGAATTCCGGTCTCCC
DNA 2: TGGTGGCTACGACGGGATT
B5: CGGUGCC (DNA:RNA)
RNA: B3 RNA with U25C, A26G, U27G, G28U, A29G
DNA 1: CAATCTGAATTCCGGTCTCCC
DNA 2: TGGTGGCTACGACGGGATT
B6: GACCUGU (DNA:RNA)
RNA: B1 RNA with C26A, A28C, G29U, U30G, G31U
DNA 1: CAATCTGAATTCCGGTCTCCC
DNA 2: TGGTGGCTACGACGGGATT
B7: CGGGACG (DNA:RNA)
RNA: B3 RNA with U25C, A26G, U27G, C31G
DNA 1: CAATCTGAATTCCGGTCTCCC
DNA 2: TGGTGGCTACGACGGGATT
B8: UUGGGAU (DNA:RNA)
RNA: B3 RNA with A26U, U27G, A29G, C30A, C31U
DNA 1: CAATCTGAATTCCGGTCTCCC
DNA 2: TGGTGGCTACGACGGGATT
B9: CCAGUUA (DNA:RNA)
RNA: B1 RNA with G25C, C27A, A28G, G29U, G31A
DNA 1: CAATCTGAATTCCGGTCTCCC
DNA 2: TGGTGGCTACGACGGGATT
B10: UCGGCCG (DNA:RNA)
RNA: B3 RNA with A26C, U27G, A29C, C31G
DNA 1: CAATCTGAATTCCGGTCTCCC
DNA 2: TGGTGGCTACGACGGGATT
B11: UGUUCUA (DNA:RNA)
RNA: B3 RNA with A26G, G28U, A29C, C30U, C31A
DNA 1: CAATCTGAATTCCGGTCTCCC
DNA 2: TGGTGGCTACGACGGGATT
B12: UCAGGCC (DNA:RNA)
RNA: B3 RNA with A26C, U27A, A29G
DNA 1: CAATCTGAATTCCGGTCTCCC
DNA 2: TGGTGGCTACGACGGGATT
B13: GGGAACA (DNA:RNA)
RNA: B1 RNA with C26G, C27G, G29A, U30C, G31A
DNA 1: CAATCTGAATTCCGGTCTCCC
DNA 2: TGGTGGCTACGACGGGATT
B14: GGUUAAU (DNA:RNA)
RNA: B3 RNA with U25G, A26G, G28U, C30A, C31U
DNA 1: CAATCTGAATTCCGGTCTCCC
DNA 2: TGGTGGCTACGACGGGATT
B15: GUCAACU (DNA:RNA)
RNA: B1 RNA with C26U, G29A, U30C, G31U
DNA 1: CAATCTGAATTCCGGTCTCCC
DNA 2: TGGTGGCTACGACGGGATT
B16: UUUCGGA (DNA:RNA)
RNA: B3 RNA with A26U, G28C, A29G, C30G, C31A
DNA 1: CAATCTGAATTCCGGTCTCCC
DNA 2: TGGTGGCTACGACGGGATT
B17: UGCGGGG (DNA:RNA)
RNA: B1 RNA with G25U, C26G, A28G, U30G
DNA 1: CAATCTGAATTCCGGTCTCCC
DNA 2: TGGTGGCTACGACGGGATT
B18: UCCUUAC (DNA:RNA)
RNA: B1 RNA with G25U, A28U, G29U, U30A, G31C
DNA 1: CAATCTGAATTCCGGTCTCCC
DNA 2: TGGTGGCTACGACGGGATT
B19: AGCCCCU (DNA:RNA)
RNA: B1 RNA with G25A, C26G, A28C, G29C, U30C, G31U
DNA 1: CAATCTGAATTCCGGTCTCCC
DNA 2: TGGTGGCTACGACGGGATT
B20: CGGUCAG (DNA:RNA)
RNA: B1 RNA with G25C, C26G, C27G, A28U, G29C, U30A
DNA 1: CAATCTGAATTCCGGTCTCCC
DNA 2: TGGTGGCTACGACGGGATT
B21: ACAAACA (DNA:RNA)
RNA: B1 RNA with G25A, C27A, G29A, U30C, G31A
DNA 1: CAATCTGAATTCCGGTCTCCC
DNA 2: TGGTGGCTACGACGGGATT
B22: CAUGUAA (DNA:RNA)
RNA: B3 RNA with U25C, A29U, C30A, C31A
DNA 1: CAATCTGAATTCCGGTCTCCC
DNA 2: TGGTGGCTACGACGGGATT
B23: GCUAAAC (DNA:RNA)
RNA: B1 RNA with C27U, G29A, U30A, G31C
DNA 1: CAATCTGAATTCCGGTCTCCC
DNA 2: TGGTGGCTACGACGGGATT
B24: CUCACAG (DNA:RNA)
RNA: B1 RNA with G25C, C26U, G29C, U30A
DNA 1: CAATCTGAATTCCGGTCTCCC
DNA 2: TGGTGGCTACGACGGGATT
B25: AGGAGUC (DNA:RNA)
RNA: B1 RNA with G25A, C26G, C27G, G31C
DNA 1: CAATCTGAATTCCGGTCTCCC
DNA 2: TGGTGGCTACGACGGGATT
B26: UACGGAA (DNA:RNA)
RNA: B3 RNA with U27C, A29G, C30A, C31A
DNA 1: CAATCTGAATTCCGGTCTCCC
DNA 2: TGGTGGCTACGACGGGATT
B27: CCCUUAU (DNA:RNA)
RNA: B1 RNA with G25C, A28U, G29U, U30A, G31U
DNA 1: CAATCTGAATTCCGGTCTCCC
DNA 2: TGGTGGCTACGACGGGATT
B28: CUGACCU (DNA:RNA)
RNA: B1 RNA with G25C, C26U, C27G, G29C, U30C, G31U
DNA 1: CAATCTGAATTCCGGTCTCCC
DNA 2: TGGTGGCTACGACGGGATT
B29: AAUCACG (DNA:RNA)
RNA: B3 RNA with U25A, G28C, C31G
DNA 1: CAATCTGAATTCCGGTCTCCC
DNA 2: TGGTGGCTACGACGGGATT
B30: UACCCCC (DNA:RNA)
RNA: B3 RNA with U27C, G28C, A29C
DNA 1: CAATCTGAATTCCGGTCTCCC
DNA 2: TGGTGGCTACGACGGGATT
B31: UACCUCC (DNA:RNA)
RNA: B3 RNA with U27C, G28C, A29U
DNA 1: CAATCTGAATTCCGGTCTCCC
DNA 2: TGGTGGCTACGACGGGATT

What follows are binders tested against T1, RBFOX1 RRM RbFoxmut (Fox-RRM*) (assay: EMSA; HiTS-Eq, 1 nM pool, 10 min; buffer printed only for the single-RNA assays: 10 mM Tris pH 7.5, 150 mM NaCl, 3.4 mM EDTA, 0.001% NP-40, 30 C). Details: tags: His6 N-terminal (pET28a); label: 5' 32P.
Method in brief: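 Relative association constants, normalised to the cognate motif, were derived by comparing read counts of each RNA species with those of the control reaction. The RNA sequenced was the free fraction, separated by 8% native PAGE after a 10 min equilibration in 50 µL of 1 nM 5′-radiolabelled RNA (7 randomized nucleotides) with increasing concentrations of purified wild-type or mutant RbFox RRM.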
In the case of B1, the binding signal is reported as 0.121 KA relative to UGCAUGU. In the case of B2, the binding signal is reported as 0.0591 KA relative to UGCAUGU. With B3 the binding signal was 0.0839 KA relative to UGCAUGU. In the case of B4, the binding signal is reported as 0.187 KA relative to UGCAUGU. For B5, the binding signal was 0.203 KA relative to UGCAUGU. B6 was tested, and the binding signal was 0.0919 KA relative to UGCAUGU. For B7, the binding signal was 0.108 KA relative to UGCAUGU. B8 was tested, and the binding signal was 0.0914 KA relative to UGCAUGU. B9 was tested, and the binding signal was 0.114 KA relative to UGCAUGU. With B10 the binding signal was 0.123 KA relative to UGCAUGU. With B11 the binding signal was 0.128 KA relative to UGCAUGU. With B12 the binding signal was 0.216 KA relative to UGCAUGU. With B13 the binding signal was 0.0769 KA relative to UGCAUGU. With B14 the binding signal was 0.0863 KA relative to UGCAUGU. In the case of B15, the binding signal is reported as 0.0718 KA relative to UGCAUGU. B16 was tested, and the binding signal was 0.0828 KA relative to UGCAUGU. In the case of B17, the binding signal is reported as 0.0735 KA relative to UGCAUGU. With B18 the binding signal was 0.0887 KA relative to UGCAUGU. For B19, the binding signal was 0.0665 KA relative to UGCAUGU. In the case of B20, the binding signal is reported as 0.0842 KA relative to UGCAUGU. B21 was tested, and the binding signal was 0.101 KA relative to UGCAUGU. For B22, the binding signal was 0.147 KA relative to UGCAUGU. In the case of B23, the binding signal is reported as 0.0819 KA relative to UGCAUGU. B24 was tested, and the binding signal was 0.0993 KA relative to UGCAUGU. In the case of B25, the binding signal is reported as 0.093 KA relative to UGCAUGU. B26 was tested, and the binding signal was 0.0942 KA relative to UGCAUGU. B27 was tested, and the binding signal was 0.0902 KA relative to UGCAUGU. With B28 the binding signal was 0.0588 KA relative to UGCAUGU. B29 was tested, and the binding signal was 0.0798 KA relative to UGCAUGU. In the case of B30, the binding signal is reported as 0.0928 KA relative to UGCAUGU. In the case of B31, the binding signal is reported as 0.0299 KA relative to UGCAUGU.
